Measurements published in the BET-seq Pho4 binding data (Le et al. 2018).
The list shows a part of the results. These are noisy estimates, calculated here from bound and input reads.

molecular target: T1, Pho4 (S. cerevisiae) (UniProt P07270); test: relative binding free energy (BET-seq); higher = weaker binding; details: reference: library average
T1 sequence: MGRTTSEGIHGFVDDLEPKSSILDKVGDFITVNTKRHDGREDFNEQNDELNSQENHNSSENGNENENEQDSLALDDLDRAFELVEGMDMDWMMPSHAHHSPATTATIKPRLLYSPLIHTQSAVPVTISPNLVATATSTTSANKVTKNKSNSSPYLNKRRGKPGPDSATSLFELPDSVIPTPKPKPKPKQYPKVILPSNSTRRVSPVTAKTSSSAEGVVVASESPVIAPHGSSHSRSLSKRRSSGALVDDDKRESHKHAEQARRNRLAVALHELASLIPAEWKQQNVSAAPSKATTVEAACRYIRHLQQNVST

Sequence | relative binding free energy [kcal/mol]
CTGAACACGTGGGGAG | -0.03
CCGGTCACGTGGTAGG | 0
TTAAACACGTGGCGTG | -0.09
GTGGGCACGTGCGTTT | -0.08
GGGGGCACGTGCTGCT | -0.21
GCGTTCACGTGTAATA | 0.55
TCGTGCACGTGTGGAA | 0.09
CGCGGCACGTGGTGGT | -0.15
TTGAACACGTGCGTTT | -0.03
GAACGCACGTGGTGTG | -0.15
CTTGACACGTGATTGG | 0.09
CAGGACACGTGTTGGT | -0.06
TATGGCACGTGAGAGT | 0
AATGTCACGTGGTGTT | 0.13
TAATTCACGTGCGTGG | 0.16
TTGGGCACGTGTCTGT | -0.18
TTTAGCACGTGTGCCT | 0.06
TATATCACGTGTTGCA | 0.19
GGAGACACGTGGGAGT | 0.01
TCAATCACGTGGCGGT | 0.21
AAGGACACGTGGGACG | -0.08
GGGTGCACGTGCACTG | 0.04
CTATTCACGTGGGTGC | 0.15
GGTGACACGTGGCGCT | 0.02
CAATTCACGTGTTGTT | 0.29
GTGCTCACGTGGGAAA | 0.31

Sequence | relative binding free energy [kcal/mol]
GGGCTCACGTGTTTTA | 0.43
TCAGGCACGTGTATAG | -0.1
GGGTACACGTGAAAGT | 0.39
GTTGTCACGTGGTACG | 0.03
CGGAGCACGTGTAGGA | -0.1
AGAAGCACGTGAATGT | 0.11
GGTAACACGTGACAGG | 0.24
GAAGACACGTGTAGGT | -0.02
TGTTCCACGTGTTTAA | 0.06
TTGAGCACGTGTTCTG | -0.15
GGTTACACGTGTATTC | 0.19
GGGAGCACGTGAAGTG | 0.2
TTGTACACGTGGTAAG | 0
TTGAGCACGTGGATGT | 0.02
GTGGGCACGTGAAGGG | 0.23
AGTATCACGTGTGACT | 0.24
GGATTCACGTGAGCTT | 0.37
AGGTTCACGTGGACTA | 0.43
TGTAGCACGTGGCATA | -0.23
TTTCACACGTGGGGAG | 0.03
ATGTACACGTGTTTAA | 0.08
GGGAGCACGTGGTTAA | -0.18
GTTCACACGTGAGTTG | 0.34
TTGCTCACGTGATGGT | 0.29
GGGTGCACGTGCGTAT | -0.12
GGGCGCACGTGGATGT | 0

Sequence | relative binding free energy [kcal/mol]
GATTCCACGTGGTTGG | 0.02
TAGAGCACGTGAGTGT | 0.08
TTGCGCACGTGGGCGG | -0.25
TGAGTCACGTGCGGAT | 0.02
ATGGGCACGTGATATG | 0.02
CGCGGCACGTGTGGGC | -0.13
ACGATCACGTGTAGGG | 0.11
TTAGCCACGTGTATGT | -0.03
TGGGGCACGTGTAAAT | 0.08
GAGATCACGTGGGGAC | 0.19
TTTGACACGTGTATCG | -0.11
AGCAGCACGTGGGGGG | -0.19
GGTGGCACGTGACTGG | 0.08
AGTGGCACGTGACGGG | 0
AGAATCACGTGGAGGT | 0.1
ATGGTCACGTGAAGTT | 0.35
TTAGTCACGTGGCGTT | -0.06
GTGTGCACGTGTGTGT | 0.19
TAGTTCACGTGTCAGG | 0.39
AAGGGCACGTGGTAGC | -0.17
GGTGCCACGTGTGTCG | -0.14
GGGTACACGTGTTGTT | 0.18
CAGGTCACGTGGGTTT | 0.1
ATGCTCACGTGGTGTG | 0.03
AAGTTCACGTGGGGAT | 0.12
TGGTGCACGTGAAGAC | 0.2

Sequence | relative binding free energy [kcal/mol]
TGAGCCACGTGGGATG | -0.1
GTATGCACGTGGGCAT | -0.05
AGAAACACGTGGGCGT | -0.01
GCGTTCACGTGGTGTG | 0.19
ATTGTCACGTGTGCTA | -0.09
GTTGGCACGTGGCGGT | -0.14
AGTCGCACGTGGGCGG | -0.26
TTAGCCACGTGGGATT | -0.23
GGGGCCACGTGGTATG | -0.09
GATGGCACGTGGGCGT | -0.15
TGTGTCACGTGGAAGG | 0.18
GGTGTCACGTGTCGAT | 0.15
TGAGTCACGTGGGATG | 0.01
TCAGACACGTGGGGGC | -0.03
TGTCTCACGTGCATGG | 0.2
TTGTACACGTGTATGT | 0.11
GGCGACACGTGGTGAA | 0.1
TTAATCACGTGGGTGT | -0.05
TACTTCACGTGGAAGT | 0.32
GGGGGCACGTGAACGT | 0.14
GTTGGCACGTGCGTCA | -0.12
GTACGCACGTGGTGAG | -0.17
CTTCTCACGTGTAGTT | 0.36
TATGTCACGTGTATTC | -0.05
CGGGTCACGTGTTTTA | 0.14
CGCGGCACGTGGGCGT | -0.22

Sequence | relative binding free energy [kcal/mol]
GCCGTCACGTGTAGTG | 0.26
CCGGTCACGTGTGGCG | 0.24
AACGTCACGTGTTATG | 0.06
GTGAACACGTGATTTT | 0.25
TGGTTCACGTGGTTCA | 0.22
GTGGCCACGTGAGTTG | 0.2
AAGGGCACGTGGTTGC | -0.23
AATGGCACGTGTTCGT | -0.1
AGCGCCACGTGTGGTT | 0.01
GGTATCACGTGGTGGC | 0.19
TGATGCACGTGGTGAA | -0.02
GTAGACACGTGGGTAG | -0.02
GGTGACACGTGATTTT | 0.12
TAGGTCACGTGGTAGA | 0
GTGTGCACGTGGCGGG | -0.09
CAGGTCACGTGGTATA | 0.12
TGAGACACGTGTTGAT | 0.12
TTACTCACGTGGGATG | 0.22
GGGTACACGTGGTTCG | 0.1
GCAAGCACGTGAGTGT | 0.19
AAGGGCACGTGTGAGA | -0.01
ATATTCACGTGGATTG | 0.21
GGGCGCACGTGTACTG | 0.01
ATATTCACGTGGGACG | 0.27
AGTATCACGTGTGTAA | 0.1
TGGGACACGTGAAGAT | 0.35

Sequence | relative binding free energy [kcal/mol]
GAGTTCACGTGAGTAA | 0.42
TCAGTCACGTGGTCGG | -0.09
TCTATCACGTGATGGG | 0.15
CGGGCCACGTGGCGGT | -0.06
GCGTACACGTGGGAGG | -0.13
GAGTTCACGTGGTATG | 0.07
GTGTACACGTGCGTTT | -0.04
GTAGTCACGTGAAAGT | 0.31
TTGGACACGTGTACTT | 0.1
GAAGGCACGTGAGCGT | 0.06
TGAATCACGTGGGGAT | -0.06
AATTGCACGTGTATAT | 0.09
TGTGGCACGTGAATCG | 0.28
CGTATCACGTGAGCGT | 0.34
AACGGCACGTGGTGGA | -0.13
TGGCACACGTGCAGGG | -0.03
GTGAGCACGTGGAAGC | 0.06
TTGAGCACGTGGTGCA | -0.2
GTTTGCACGTGGTTAA | -0.01
TGTAACACGTGATAGT | 0.18
TGGTTCACGTGCTCTT | 0.22
AGGGACACGTGTTCGT | 0.1
CTTTTCACGTGGCGTA | 0.08
TAGGACACGTGGAGCT | 0.07
GGGGGCACGTGGGCGG | -0.15
GATGGCACGTGTAGTC | 0.04

Sequence | relative binding free energy [kcal/mol]
GGGTACACGTGCAGTT | 0.16
GGTTGCACGTGTCGAG | 0.16
GGAATCACGTGGTGGA | 0.14
TGCAACACGTGGTTTG | -0.08
CGGGTCACGTGCATAT | 0.24
TTTGGCACGTGGCAAG | -0.16
TTGGGCACGTGCGCTG | -0.09
TGGGACACGTGGGATA | -0.03
ACTGTCACGTGCGGTT | 0.06
GGCTGCACGTGTAAGG | 0.15
TGTCGCACGTGCTGAG | -0.11
GTAGTCACGTGGGCGC | 0.1
CGGTGCACGTGGCTGA | -0.1
AGATTCACGTGTGCTG | 0.12
GTTTCCACGTGTGTAA | 0.23
GGGTCCACGTGTCGGG | 0.05
GTAGTCACGTGAGCGC | 0.31
GGGCCCACGTGTTGTT | -0.05
TGTTGCACGTGCGAGT | 0.12
GTGGGCACGTGGGTAT | -0.15
TCTGGCACGTGAGGTG | 0.15
ATAAGCACGTGATGTT | 0.11
CAGTTCACGTGGTCGT | 0.21
GGTTTCACGTGTCGGC | 0.41
TGGGGCACGTGAATCT | 0.04
TAATACACGTGTGGGG | -0.03

Sequence | relative binding free energy [kcal/mol]
AATGGCACGTGAGTAG | 0
AGTTTCACGTGTCTGA | 0.22
CGTATCACGTGCGTGG | -0.04
ATTAACACGTGTGGTA | -0.13
TGCATCACGTGTCGGA | 0.29
ATATGCACGTGTTTCA | -0.02
AAGTACACGTGAGTTG | 0.23
GTTAACACGTGTCGTG | 0.11
GGGAGCACGTGGTAGC | -0.09
AGACTCACGTGAGGTG | 0.21
GTAACCACGTGGTTGT | -0.07
ATTGTCACGTGGCTTT | 0
TTGTCCACGTGGGTGA | -0.11
GTGAGCACGTGATATG | 0.07
TTACTCACGTGATTTG | 0.17
AGGGCCACGTGTTGGA | -0.07
GATGTCACGTGTACGG | 0.2
GAGAGCACGTGGTTTT | 0
ATCATCACGTGGTTGG | 0
TGCGGCACGTGGGCGT | -0.15
ATCGTCACGTGGGAGG | -0.08
AGTGGCACGTGTCTTG | -0.24
TGTTACACGTGAATGC | 0.32
GTTGCCACGTGTGAAG | 0.07
TTGGCCACGTGAGGTT | 0.14
GGGGTCACGTGAATGG | 0.38

Sequence | relative binding free energy [kcal/mol]
TATTTCACGTGCTTAT | 0.19
GAATGCACGTGTTTTG | 0.06
CTTCTCACGTGTGGGT | 0.16
GGAGGCACGTGGGCAA | -0.21
GGTTGCACGTGCGGGT | -0.01
GCGATCACGTGTGTAT | 0.27
AGTGTCACGTGGTCTA | -0.11
ATGTTCACGTGATGTA | 0.33
TTGGGCACGTGGGAGG | -0.07
ATGTCCACGTGAGAGT | 0.25
TAGGACACGTGCGGGA | 0.11
CAATGCACGTGTTTGA | 0.12
TAGTTCACGTGTACAT | 0.26
GGTTGCACGTGGTTTT | -0.01
CTTGACACGTGTTTGT | -0.05
TATGGCACGTGTTTGA | -0.19
TTCTTCACGTGTAAGG | 0.25
TATGACACGTGGTCTG | -0.1
TTGAGCACGTGTGGGA | -0.02
GGTCGCACGTGAGGGC | 0.21
TAATCCACGTGTTTGG | 0.01
GTGTCCACGTGGAATG | 0.02
